Test results reported in the RNAGym collection of RNA variant scans (doi:10.1101/gad.245936.114).
Variants at the background level are over-represented here.

B1: tRNA (parent)
chain: CUCUCGGUAGCCAAGUUGGUUUAAGGCGCAAGACUUUAAUUUAUCACUACGAAAUCUUGAGAUCGGGCGUUCGACUCGCCCCCGGGAGAUUUUUUCCUCGAGCAA

Variants of: B1
Assay: nonsense suppression (GFP-seq) (ratio to wild type); higher = more function; SUP4oc tRNA, yeast GFP reporter sort-seq
Method in brief: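 Raffinose/galactose medium with 80 mg/L adenine was used to grow yeast carrying genome-integrated tRNA variants (~3% random-mutation library), RFP, and a galactose-driven GFP ochre reporter. Cells went into GFP/RFP bins, which were Illumina-sequenced, and variants with ≥100 reads and ≥30 cells were scored. Nonsense suppression (GFPSEQ) is the per-bin median GFP/RFP weighted by estimated cell share and expressed relative to the unmutated parent tRNA.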

Row | Variant | nonsense suppression
1 | C1U C5U U22C U63C | ≤ 0.026
2 | C1U C11G G18A A60U A62U | ≤ 0.026
3 | C1U C11U | ≤ 0.026
4 | C1U C11U A14G G28U A60C | ≤ 0.026
5 | C1U C11U C75A | ≤ 0.026
6 | C1U C11U G65A | ≤ 0.026
7 | C1U C12G | 0.327
8 | C1U C12G G84C | ≤ 0.026
9 | C1U C27A A89U | ≤ 0.026
10 | C1U C27G | ≤ 0.026
11 | C1U C27G A62U | ≤ 0.026
12 | C1U C27G G69C U70A | ≤ 0.026
13 | C1U C27U G66A | ≤ 0.026
14 | C1U C29A A33U | ≤ 0.026
15 | C1U C29A U70A | ≤ 0.026
16 | C1U C29G | ≤ 0.026
17 | C1U C34A | ≤ 0.026
18 | C1U C34A U58G | ≤ 0.026
19 | C1U C34G A60C | ≤ 0.026
20 | C1U C34U | ≤ 0.026
21 | C1U C34U G85C | ≤ 0.026
22 | C1U C56A G61C | ≤ 0.026
23 | C1U C64G C75U A89G | ≤ 0.026
24 | C1U C68G | ≤ 0.026

Row | Variant | nonsense suppression
25 | C1U C72A | ≤ 0.026
26 | C1U C72U | ≤ 0.026
27 | C1U C75G | ≤ 0.026
28 | C1U C82G | ≤ 0.026
29 | C1U C82G G86C | ≤ 0.026
30 | C1U C82U | ≤ 0.026
31 | C1U G6A A31C U58A G61C U76C | ≤ 0.026
32 | C1U G6C A14G | ≤ 0.026
33 | C1U G6C G10U U58C | ≤ 0.026
34 | C1U G6U A33U C77G A89G | ≤ 0.026
35 | C1U G6U G7A C12U G59A | ≤ 0.026
36 | C1U G6U G28C C80A G88A | ≤ 0.026
37 | C1U G6U G86A | ≤ 0.026
38 | C1U G7A | ≤ 0.026
39 | C1U G7A A62C U71C | ≤ 0.026
40 | C1U G7A A89U | ≤ 0.026
41 | C1U G7C | ≤ 0.026
42 | C1U G7C U63G C75U | ≤ 0.026
43 | C1U G7U U20C A54C | ≤ 0.026
44 | C1U G7U U35C G65U U76A | ≤ 0.026
45 | C1U G10A U17G U70G | ≤ 0.026
46 | C1U G10C U55C U57G | ≤ 0.026
47 | C1U G10U U16C U17G | ≤ 0.026
48 | C1U G15A C27U C29G U76A | ≤ 0.026

Row | Variant | nonsense suppression
49 | C1U G15C U16A A33C G61A | ≤ 0.026
50 | C1U G15C U57A | ≤ 0.026
51 | C1U G15U A31U | ≤ 0.026
52 | C1U G18A A62G C82A | ≤ 0.026
53 | C1U G18A U76G | ≤ 0.026
54 | C1U G18C G32U C77U | ≤ 0.026
55 | C1U G18U G73U | ≤ 0.026
56 | C1U G19U U21G C27U G66C | ≤ 0.026
57 | C1U G25U | ≤ 0.026
58 | C1U G26A U57C | ≤ 0.026
59 | C1U G26U | ≤ 0.026
60 | C1U G28U G84A | ≤ 0.026
61 | C1U G32C U70A C80G | ≤ 0.026
62 | C1U G32C U71C C72G G73C G86U | ≤ 0.026
63 | C1U G32U G67A G88A | ≤ 0.026
64 | C1U G59A | ≤ 0.026
65 | C1U G61A U70G G73C | ≤ 0.026
66 | C1U G61U U76C | ≤ 0.026
67 | C1U G65C C79U G84U | ≤ 0.026
68 | C1U G65U | ≤ 0.026
69 | C1U G66C G73C A87C | ≤ 0.026
70 | C1U G85A | ≤ 0.026
71 | C1U G85A G88U | ≤ 0.026
72 | C1U G85C | ≤ 0.026

Row | Variant | nonsense suppression
73 | C1U G86U | ≤ 0.026
74 | C1U G88U | ≤ 0.026
75 | C1U U2A C3G A23U G28C | ≤ 0.026
76 | C1U U2A U4G C80U | ≤ 0.026
77 | C1U U2C A62G C64G G73A | ≤ 0.026
78 | C1U U2C C11G G69C | ≤ 0.026
79 | C1U U2C G32U G86U | ≤ 0.026
80 | C1U U2G G18U | ≤ 0.026
81 | C1U U4A A23U G84A | ≤ 0.026
82 | C1U U4A C12G G32C G67U G88U | ≤ 0.026
83 | C1U U4A G78A | ≤ 0.026
84 | C1U U4C G6C A23C G65C C81A | ≤ 0.026
85 | C1U U4G G78A | ≤ 0.026
86 | C1U U8A G15C C72G G88A | ≤ 0.026
87 | C1U U8C A33U U55C G69A | ≤ 0.026
88 | C1U U8G A14U C34G | ≤ 0.026
89 | C1U U8G C11A C75G | ≤ 0.026
90 | C1U U16A | ≤ 0.026
91 | C1U U16C A31G U71G A74C | ≤ 0.026
92 | C1U U17C C64A | ≤ 0.026
93 | C1U U17C C81G | ≤ 0.026
94 | C1U U17C G69C U76C G86C | ≤ 0.026
95 | C1U U17C U58A U70C | ≤ 0.026
96 | C1U U17G | ≤ 0.026

Row | Variant | nonsense suppression
97 | C1U U20A G73C | 0.722
98 | C1U U20G A30G G59C | ≤ 0.026
99 | C1U U21C G69U C83G G85A A87U A89G | ≤ 0.026
100 | C1U U22A A23U C29U A33G U57C C81G | ≤ 0.026
101 | C1U U22A U35C A54G G61A U63G U70C G84A G86A A87C | ≤ 0.026
102 | C1U U22C | ≤ 0.026
103 | C1U U22C C83G | ≤ 0.026
104 | C1U U35A C77A G84U | ≤ 0.026
105 | C1U U35C | ≤ 0.026
106 | C1U U35C A62G G86A | ≤ 0.026
107 | C1U U35G | ≤ 0.026
108 | C1U U55A A62U G73A | ≤ 0.026
109 | C1U U55A G67U | ≤ 0.026
110 | C1U U55A G69C G85A | ≤ 0.026
111 | C1U U55A G85A | ≤ 0.026
112 | C1U U55C U71G | ≤ 0.026
113 | C1U U55G C83G | ≤ 0.026
114 | C1U U55G U58G | ≤ 0.026
115 | C1U U57C U58A | ≤ 0.026
116 | C1U U57G | ≤ 0.026
117 | C1U U57G U76A | ≤ 0.026
118 | C1U U58A | ≤ 0.026
119 | C1U U58G C77A | ≤ 0.026
120 | C1U U70A | ≤ 0.026

Row | Variant | nonsense suppression
121 | C1U U70C G84U | ≤ 0.026
122 | C1U U70C U76C C82G | ≤ 0.026
123 | C1U U70G C83G | ≤ 0.026
124 | C1U U71A | ≤ 0.026
125 | C1U U71G | ≤ 0.026
126 | C1U U76C C77A A87U | ≤ 0.026
127 | C1U U76G | ≤ 0.026
128 | U2A A9C C29U C68A | ≤ 0.026
129 | U2A A9G U16G G61A G86U | ≤ 0.026
130 | U2A A9U G78A | ≤ 0.026
131 | U2A A13C A31U | ≤ 0.026
132 | U2A A13C G65A | ≤ 0.026
133 | U2A A13C U63A | ≤ 0.026
134 | U2A A13G C34G G69A | ≤ 0.026
135 | U2A A13U | 0.0284
136 | U2A A13U C56G | ≤ 0.026
137 | U2A A13U U57C U71G U76A C79U | ≤ 0.026
138 | U2A A14C G59U G61C | ≤ 0.026
139 | U2A A23C | ≤ 0.026
140 | U2A A23U G67U | ≤ 0.026
141 | U2A A24C A33C | ≤ 0.026
142 | U2A A24G | ≤ 0.026
143 | U2A A30U | 0.031
144 | U2A A30U G69A C77G | ≤ 0.026

Row | Variant | nonsense suppression
145 | U2A A30U G69A C77U | ≤ 0.026
146 | U2A A31C | ≤ 0.026
147 | U2A A31G A87G | ≤ 0.026
148 | U2A A33C | ≤ 0.026
149 | U2A A60C | ≤ 0.026
150 | U2A A60G | 0.0755
151 | U2A A62G G78C | ≤ 0.026
152 | U2A A62U G66U C68G C80U G88U | ≤ 0.026
153 | U2A A74G | ≤ 0.026
154 | U2A A89U | ≤ 0.026
155 | U2A C3A C72A | ≤ 0.026
156 | U2A C3U | ≤ 0.026
157 | U2A C3U C29G | ≤ 0.026
158 | U2A C3U G69U C82A | ≤ 0.026
159 | U2A C3U G78U C81G | ≤ 0.026
160 | U2A C3U U20C G65A | ≤ 0.026
161 | U2A C5G | ≤ 0.026
162 | U2A C11A U17G C68U | ≤ 0.026
163 | U2A C12A | ≤ 0.026
164 | U2A C12G | ≤ 0.026
165 | U2A C12U G61U U63A | ≤ 0.026
166 | U2A C12U U22G | ≤ 0.026
167 | U2A C27A | ≤ 0.026
